Reference: the supplement of paper PMC5919970
Where a name gives a salt, the structure may show the parent alone. Whole data set: some 2,000 compounds, median “fractional viability relative to vehicle” near 0.92, cut for the lowest 2% near 0.11. Some of the results follow.

System: TYKNU
Experiment: fractional viability relative to vehicle; TYKNU is a high-grade serous ovarian cancer line; higher = less growth inhibition
Settings: 72 h, genotype: OPA1 knockout (sgOPA1 #2)
How it was run: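 TYKNU control cells or lentiCRISPRv2 knockout derivatives were plated at 500 cells per well in duplicate into drug-stamped 384-well plates holding a ~2100-compound library at 2 or 10 μM. Culture was in RPMI 1640 with 10% FBS at 37 °C in 5% CO2, with 72 h of drug treatment. Viability was measured by Cell Titer Glo luminescence, and the averaged duplicate treatment wells were normalised to duplicate control wells at the same plate position.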

SMILES	fractional viability (2uM)	fractional viability (10uM)
COc1ccccc1OCC(O)CN1CCN(CC(=O)Nc2c(C)cccc2C)CC1 (stereo unspecified) [Ranolazine 2HCl]	1.13	1.03
COc1ccccc1OCC(O)CN1CCN(CC(=O)Nc2c(C)cccc2C)CC1 (stereo unspecified) [Ranolazine]	1.09	0.926
CN(C)C(=S)NN=C(c1ccccn1)c1ccccn1	0.572	0.755
COc1cc([C@@H]2c3cc4c(cc3[C@@H](O[C@@H]3O[C@@H]5CO[C@@H](C)O[C@H]5[C@H](O)[C@H]3O)[C@H]3COC(=O)[C@H]23)OCO4)cc(OC)c1O [Etoposide]	0.88	0.607
C[C@H]1C[C@@H]2[C@H]([C@@H](O)C[C@@]3(C)[C@H]2CC[C@]3(O)C(=O)CO)[C@@]2(C)C=CC(=O)C=C12 [Methylprednisolone]	1.1	0.956
CC(=O)Nc1nc(C)c(-c2ccc(Cl)c(S(=O)(=O)NCCO)c2)s1	0.961	0.668
OC[C@H]1O[C@@H](Oc2cc(O)cc(/C=C/c3ccc(O)cc3)c2)[C@H](O)[C@@H](O)[C@@H]1O [Polydatin]	1.09	0.918
COc1ccc(C2CNC(=O)C2)cc1OC1CCCC1 (stereo unspecified) [Rolipram]	1.28	1.09
O=c1c(O)c(-c2ccc(O)cc2O)oc2cc(O)cc(O)c12 [Morin Hydrate]	1.17	1.04
CCOC(=O)[C@H](CCc1ccccc1)N[C@H]1CS[C@H](c2cccs2)CN(CC(=O)O)C1=O [Temocapril HCl]	1.14	0.841
COc1ccc(F)c(F)c1C(=O)c1cnc(NC2CCN(S(C)(=O)=O)CC2)nc1N	0.518	0.619
CCCCC(F)(F)[C@@]1(O)CC[C@H]2[C@@H](CC(=O)[C@@H]2CCCCCCC(=O)O)O1 [Lubiprostone]	0.935	1.03
O=S(=O)(O)c1cc(O)ccc1O [Ethamsylate]	0.911	0.925
O=C1C[C@@H](c2ccc(O)cc2)Oc2cc(O)cc(O)c21 [Naringenin]	1.01	1.06
CCC(=O)O[C@]1(C(=O)CCl)[C@@H](C)C[C@H]2[C@@H]3CCC4=CC(=O)C=C[C@]4(C)[C@@]3(F)[C@@H](O)C[C@@]21C [Clobetasol propionate]	1.03	0.908
C[C@H](CCC(=O)O)[C@H]1CC[C@H]2[C@@H]3[C@H](O)C[C@@H]4C[C@H](O)CC[C@]4(C)[C@H]3CC[C@]12C [Chenodeoxycholic Acid]	1.05	1.07
COc1ccc([C@@H]2CC(=O)c3c(O)cc(O[C@@H]4O[C@H](CO)[C@@H](O)[C@H](O)[C@H]4O[C@@H]4O[C@@H](C)[C@H](O)[C@@H](O)[C@H]4O)cc3O2)cc1O [Neohesperidin]	1.11	0.888

SMILES	fractional viability (2uM)	fractional viability (10uM)
CC(=O)OCC(CCn1cnc2cnc(N)nc21)COC(C)=O [Famciclovir]	0.98	0.781
CC(C)CC(CC(=O)NO)C(=O)N[C@@H](Cc1ccc2ccccc2c1)C(=O)N[C@@H](C)C(=O)NCCN (stereo partly specified)	0.849	0.679
C=CC(=O)Nc1cccc(Oc2nc(Nc3ccc(N4CCN(C)CC4)cc3OC)ncc2Cl)c1	0.964	0.766
O=C(/C=C/c1ccc(O)c(O)c1)OCCc1ccccc1 [Caffeic Acid Phenethyl Ester]	0.978	0.808
Nc1cc(C(Cl)=C(Cl)Cl)c(S(N)(=O)=O)cc1S(N)(=O)=O [Clorsulon]	1.06	0.918
Cc1ccccc1CN1C2=NCCN2C(=O)C2=C1CCN(Cc1ccccc1)C2 [TIC10 Analogue]	0.878	0.768
CC[C@H](C)C(=O)O[C@H]1CCC=C2C=C[C@H](C)[C@H](CC[C@@H]3C[C@@H](O)CC(=O)O3)[C@H]21 [Mevastatin]	0.905	0.617
CC(=O)[C@]1(O)Cc2c(O)c3c(c(O)c2[C@@H](O[C@H]2C[C@H](N)[C@H](O)[C@H](C)O2)C1)C(=O)c1ccccc1C3=O [Idarubicin HCl]	0.56	0.0586
O=c1oc2ccccc2c(O)c1Cc1c(O)c2ccccc2oc1=O [Dicoumarol]	0.961	0.877
CS(=O)(=O)N1CCc2c(-c3cnc(N)nc3)nc(N3CCOCC3)nc21	0.65	0.319
Cc1nc(=O)c2cc(CN(C)c3ccc(C(=O)N[C@@H](CCC(=O)O)C(=O)O)s3)ccc2[nH]1 [Raltitrexed]	0.762	0.722
O=C1c2ccccc2C(=O)c2c1ccc(O)c2O [Alizarin]	1.19	0.838
CCCOc1ccn2c(C(C)=O)cc(-c3ccccc3S(C)(=O)=O)c2c1	0.832	0.937
CC(/C=C1\SC(=S)N(CC(=O)O)C1=O)=C\c1ccccc1 [Epalrestat]	0.964	1.07
COc1ccc([C@]2(C#N)CC[C@@H](C(=O)O)CC2)cc1OC1CCCC1 [Cilomilast]	1.16	0.971
O=C(NCCO)c1cccc(-c2cc(Nc3ccc(OC(F)(F)F)cc3)ncn2)c1	0.946	0.84
